# The list shows a part of the results.
# B1: RfpB (Mycobacterium tuberculosum), O05594 (protein)
# chain: MAAGLVTASMSLSTAVAHAGPSPNWDAVAQCESGGNWAANTGNGKYGGLQFKPATWAAFGGVGNPAAASREQQIAVANRVLAEQGLDAWPTCGAASGLPIALWSKPAQGIKHAGPSPNWDAVAQCESGGNWAANTGNGKYGGLQFKPATWAAFGGVGNPAAASREQQIAVANRVLAEQGLDAWPTCGA
# Legend:
# Assay in all cases: glycan array binding signal (z-score within array); higher = stronger binding
# Settings in all cases: glycan notation: IUPAC condensed, linker removed
# [1] = target: Man(a1-3)[Man(a1-6)]Man(a1-6)[Man(a1-3)]Man(b1-4)GlcNAc(b1-4)GlcNAc
# In short: (§1)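 Negative Z-scores can be read as non-binding. The Z-score is calculated within each array and then averaged across arrays of one protein sequence at different concentrations or buffers and across linkers. Arrays, 3228 in all, were curated from the Consortium for Functional Glycomics database and kept only where the protein sequence was available.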
# [2] = target: Man(a1-3)[Man(a1-6)]Man(b1-4)GlcNAc(b1-4)GlcNAc
# In short: as §1
# Man(a1-6)Man = target: Man(a1-6)Man
# In short: as §1
# Man(b1-4)GlcNAc = target: Man(b1-4)GlcNAc
# In short: as §1
# Neu5Ac(a2-3)Gal = target: Neu5Ac(a2-3)Gal
# In short: as §1
# [3] = target: Neu5Ac(a2-3)Gal(b1-3)GalNAc
# In short: as §1
# [4] = target: Neu5Ac(a2-3)Gal(b1-3)GalNAc(b1-3)Gal(a1-4)Gal(b1-4)Glc
# In short: as §1
# [5] = target: Neu5Ac(a2-3)Gal(b1-3)GalNAc(b1-3)Gal(b1-4)GlcNAc
# In short: as §1
# [6] = target: Neu5Ac(a2-3)Gal(b1-3)GalNAc(b1-4)[Neu5Ac(a2-3)]Gal(b1-4)Glc
# In short: as §1
# [7] = target: Neu5Ac(a2-3)Gal(b1-3)GalNAc6S
# In short: as §1
# [8] = target: Neu5Ac(a2-3)Gal(b1-3)GlcNAc
# In short: as §1
# [9] = target: Neu5Ac(a2-3)Gal(b1-3)GlcNAc(b1-3)Gal(b1-3)GlcNAc
# In short: as §1
# [10] = target: Neu5Ac(a2-3)Gal(b1-3)GlcNAc6S
# In short: as §1
# [11] = target: Neu5Ac(a2-3)Gal(b1-3)[Fuc(a1-4)]GlcNAc
# In short: as §1
# [12] = target: Neu5Ac(a2-3)Gal(b1-3)[Fuc(a1-4)]GlcNAc(b1-3)Gal(b1-4)[Fuc(a1-3)]GlcNAc
# In short: as §1
# [13] = target: Neu5Ac(a2-3)Gal(b1-3)[Neu5Ac(a2-3)Gal(b1-4)]GlcNAc
# In short: as §1
# [14] = target: Neu5Ac(a2-3)Gal(b1-3)[Neu5Ac(a2-6)]GalNAc
# In short: as §1
# Neu5Ac(a2-3)Gal(b1-4)Glc = target: Neu5Ac(a2-3)Gal(b1-4)Glc
# In short: as §1
# [15] = target: Neu5Ac(a2-3)Gal(b1-4)GlcNAc
# In short: as §1
# [16] = target: Neu5Ac(a2-3)Gal(b1-4)GlcNAc(b1-2)Man(a1-3)[GlcNAc(b1-2)Man(b1-4)GlcNAc(b1-2)Man(a1-6)]Man(b1-4)GlcNAc(b1-4)GlcNAc
# In short: as §1
# [17] = target: Neu5Ac(a2-3)Gal(b1-4)GlcNAc(b1-2)Man(a1-3)[Neu5Ac(a2-6)Gal(b1-4)GlcNAc(b1-2)Man(a1-6)]Man(b1-4)GlcNAc(b1-4)GlcNAc
# In short: as §1
# [18] = target: Neu5Ac(a2-3)Gal(b1-4)GlcNAc(b1-3)Gal(b1-3)GlcNAc
# In short: as §1
# [19] = target: Neu5Ac(a2-3)Gal(b1-4)GlcNAc(b1-3)Gal(b1-4)GlcNAc
# In short: as §1
# [20] = target: Neu5Ac(a2-3)Gal(b1-4)GlcNAc(b1-3)Gal(b1-4)GlcNAc(b1-3)Gal(b1-4)GlcNAc
# In short: as §1
# [21] = target: Neu5Ac(a2-3)Gal(b1-4)GlcNAc(b1-3)Gal(b1-4)[Fuc(a1-3)]GlcNAc
# In short: as §1
# [22] = target: Neu5Ac(a2-3)Gal(b1-4)GlcNAc(b1-6)[Gal(b1-3)]GalNAc
# In short: as §1
# [23] = target: Neu5Ac(a2-3)Gal(b1-4)GlcNAc(b1-6)[Neu5Ac(a2-3)Gal(b1-3)]GalNAc
# In short: as §1
# [24] = target: Neu5Ac(a2-3)Gal(b1-4)GlcNAc6S
# In short: as §1
# [25] = target: Neu5Ac(a2-3)Gal(b1-4)[Fuc(a1-3)]GlcNAc
# In short: as §1
# [26] = target: Neu5Ac(a2-3)Gal(b1-4)[Fuc(a1-3)]GlcNAc(b1-3)Gal
# In short: as §1
# [27] = target: Neu5Ac(a2-3)Gal(b1-4)[Fuc(a1-3)]GlcNAc(b1-3)Gal(b1-4)GlcNAc
# In short: as §1
# [28] = target: Neu5Ac(a2-3)Gal(b1-4)[Fuc(a1-3)]GlcNAc(b1-3)Gal(b1-4)[Fuc(a1-3)]GlcNAc(b1-3)Gal(b1-4)[Fuc(a1-3)]GlcNAc
# In short: as §1
# [29] = target: Neu5Ac(a2-3)Gal(b1-4)[Fuc(a1-3)]GlcNAc(b1-6)[Gal(b1-3)]GalNAc
# In short: as §1
# [30] = target: Neu5Ac(a2-3)Gal(b1-4)[Fuc(a1-3)]GlcNAc6S
# In short: as §1
# [31] = target: Neu5Ac(a2-3)Gal6S(b1-4)GlcNAc
# In short: as §1
# [32] = target: Neu5Ac(a2-3)Gal6S(b1-4)[Fuc(a1-3)]GlcNAc
# In short: as §1
# Neu5Ac(a2-3)GalNAc = target: Neu5Ac(a2-3)GalNAc
# In short: as §1
# [33] = target: Neu5Ac(a2-3)GalNAc(b1-4)GlcNAc
# In short: as §1
# [34] = target: Neu5Ac(a2-3)[GalNAc(b1-4)]Gal(b1-4)Glc
# In short: as §1
# [35] = target: Neu5Ac(a2-3)[GalNAc(b1-4)]Gal(b1-4)GlcNAc
# In short: as §1
# [36] = target: Neu5Ac(a2-3)[Neu5Ac(a2-6)]GalNAc
# In short: as §1
# Neu5Ac(a2-6)Gal = target: Neu5Ac(a2-6)Gal
# In short: as §1
# Neu5Ac(a2-6)Gal(b1-4)Glc = target: Neu5Ac(a2-6)Gal(b1-4)Glc
# In short: as §1
# [37] = target: Neu5Ac(a2-6)Gal(b1-4)GlcNAc
# In short: as §1
# [38] = target: Neu5Ac(a2-6)Gal(b1-4)GlcNAc(b1-2)Man(a1-3)[Gal(b1-4)GlcNAc(b1-2)Man(a1-6)]Man(b1-4)GlcNAc(b1-4)GlcNAc
# In short: as §1
binder,measurement,setting,value
B1,glycan array binding signal (z-score),[1],0.289
same,glycan array binding signal (z-score),[2],0.505
same,glycan array binding signal (z-score),Man(a1-6)Man,-0.06
same,glycan array binding signal (z-score),Man(b1-4)GlcNAc,-0.558
same,glycan array binding signal (z-score),Neu5Ac(a2-3)Gal,-0.209
same,glycan array binding signal (z-score),[3],-0.19
same,glycan array binding signal (z-score),[4],-0.099
same,glycan array binding signal (z-score),[5],-0.13
same,glycan array binding signal (z-score),[6],4.02
same,glycan array binding signal (z-score),[7],0.036
same,glycan array binding signal (z-score),[8],0.417
same,glycan array binding signal (z-score),[9],-0.552
same,glycan array binding signal (z-score),[10],-0.709
same,glycan array binding signal (z-score),[11],-0.478
same,glycan array binding signal (z-score),[12],-0.316
same,glycan array binding signal (z-score),[13],-0.141
same,glycan array binding signal (z-score),[14],-0.254
same,glycan array binding signal (z-score),Neu5Ac(a2-3)Gal(b1-4)Glc,-0.155
same,glycan array binding signal (z-score),[15],-0.034
same,glycan array binding signal (z-score),[16],-0.209
same,glycan array binding signal (z-score),[17],-0.524
same,glycan array binding signal (z-score),[18],-0.23
same,glycan array binding signal (z-score),[19],-0.387
same,glycan array binding signal (z-score),[20],0.052
same,glycan array binding signal (z-score),[21],-0.469
same,glycan array binding signal (z-score),[22],-0.472
same,glycan array binding signal (z-score),[23],-0.548
same,glycan array binding signal (z-score),[24],1.6
same,glycan array binding signal (z-score),[25],-0.644
same,glycan array binding signal (z-score),[26],-0.07
same,glycan array binding signal (z-score),[27],0.039
same,glycan array binding signal (z-score),[28],-0.201
same,glycan array binding signal (z-score),[29],-0.338
same,glycan array binding signal (z-score),[30],0.147
same,glycan array binding signal (z-score),[31],-0.712
same,glycan array binding signal (z-score),[32],0.035
same,glycan array binding signal (z-score),Neu5Ac(a2-3)GalNAc,0.601
same,glycan array binding signal (z-score),[33],-0.653
same,glycan array binding signal (z-score),[34],-0.524
same,glycan array binding signal (z-score),[35],-0.024
same,glycan array binding signal (z-score),[36],-0.117
same,glycan array binding signal (z-score),Neu5Ac(a2-6)Gal,0.561
same,glycan array binding signal (z-score),Neu5Ac(a2-6)Gal(b1-4)Glc,0.151
same,glycan array binding signal (z-score),[37],-0.144
same,glycan array binding signal (z-score),[38],0.009
